Results published in publication PMC4336329 (PLoS ONE, 2015).
In all, about 310,000 compounds went through this assay and about 2,200 (0.71%) showed an effect of 50% or more. Effects have a minus sign here. The list shows a part of the results.

Target: human ether-à-go-go-related gene (hERG) potassium channel (human, UniProt Q12809)
Test: primary screen, population patch clamp on CHO cells stably expressing hERG

Sequence of human ether-à-go-go-related gene (hERG) potassium channel (Q12809 whole entry, looked up): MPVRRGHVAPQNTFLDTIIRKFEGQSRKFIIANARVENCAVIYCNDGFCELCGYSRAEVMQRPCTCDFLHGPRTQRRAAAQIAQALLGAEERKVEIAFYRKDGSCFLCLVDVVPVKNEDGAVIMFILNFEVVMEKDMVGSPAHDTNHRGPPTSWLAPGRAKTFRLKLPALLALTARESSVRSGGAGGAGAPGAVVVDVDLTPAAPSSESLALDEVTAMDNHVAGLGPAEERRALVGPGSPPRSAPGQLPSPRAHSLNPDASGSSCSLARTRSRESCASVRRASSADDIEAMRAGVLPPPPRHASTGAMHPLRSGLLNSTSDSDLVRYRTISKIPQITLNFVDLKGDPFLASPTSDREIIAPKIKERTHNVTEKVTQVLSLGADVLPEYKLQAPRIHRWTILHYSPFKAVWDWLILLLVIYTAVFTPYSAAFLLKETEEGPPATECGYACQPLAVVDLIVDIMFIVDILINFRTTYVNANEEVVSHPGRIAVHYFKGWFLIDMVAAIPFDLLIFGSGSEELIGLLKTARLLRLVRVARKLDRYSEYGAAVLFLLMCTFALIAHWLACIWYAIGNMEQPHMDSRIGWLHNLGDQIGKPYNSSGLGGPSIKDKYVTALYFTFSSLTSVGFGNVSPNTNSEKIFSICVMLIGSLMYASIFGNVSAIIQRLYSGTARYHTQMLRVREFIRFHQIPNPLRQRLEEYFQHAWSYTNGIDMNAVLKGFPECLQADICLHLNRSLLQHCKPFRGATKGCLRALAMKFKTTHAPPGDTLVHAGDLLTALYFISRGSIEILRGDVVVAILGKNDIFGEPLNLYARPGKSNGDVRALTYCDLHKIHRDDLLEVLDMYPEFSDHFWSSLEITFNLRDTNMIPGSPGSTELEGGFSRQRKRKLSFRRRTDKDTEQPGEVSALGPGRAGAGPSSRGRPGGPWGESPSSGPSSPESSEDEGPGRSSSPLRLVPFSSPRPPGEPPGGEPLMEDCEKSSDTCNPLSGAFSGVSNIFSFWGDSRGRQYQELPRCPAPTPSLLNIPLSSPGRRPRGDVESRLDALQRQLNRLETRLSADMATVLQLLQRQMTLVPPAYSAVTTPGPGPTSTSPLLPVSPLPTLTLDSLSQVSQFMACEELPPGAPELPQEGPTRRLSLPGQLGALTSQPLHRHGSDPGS

Row | Compound | hERG current change (%, negative = inhibition) at 1uM [%]
1 | COC(=O)[C@H]1[C@H](c2ccccc2)[C@H](C(=O)OC)O[C@H]1c1ccccc1 | 11.8
2 | c1ccc(Cn2cc(CNc3ccccc3)nn2)cc1 | 6.25
3 | CCCCNC(=O)CSc1nc2ccccc2c(=O)n1Cc1ccc2c(c1)OCO2 | 13.2
4 | O=C(C(=O)N1CCc2ccccc2C1)c1cn(CC(=O)N2CCCCC2)c2ccccc12 | -2.82
5 | COCCC(=O)N1CCC(Oc2ccc(C(=O)NCc3ccon3)cc2)CC1 | 13.9
6 | COc1ccccc1C(=O)NCCC(=O)N1CCCCC1 | 13
7 | CCOC(=O)C1CCN(S(=O)(=O)c2ccc(Cl)nc2)CC1 | 8.17
8 | CC(C)n1nnnc1SCC(=O)Nc1ccc2c(c1)OCO2 | -4.36
9 | Cc1ccc(C)c(NC(=S)N2CCC(NC(=O)C3CCCCC3)CC2)c1 | 4.73
10 | CN(C[C@H](Cc1ccccc1)N(C[C@@H](Cc1cccc2ccccc12)N(CCc1ccccc1)N=O)N=O)N=O.[Na+] | 14.1
11 | CCc1ccc(NC(=O)c2cc(C(C)C)on2)cc1 | -17.8
12 | O=C(/C=C/c1ccco1)NC(=S)Nc1nc(-c2ccc3ccccc3c2)cs1 | 16.3
13 | COc1ccccc1N1CCN(C(CNC(=O)Oc2ccccc2)c2cccnc2)CC1 (stereo not shown) | 2.94
14 | COc1cccc(-c2ncc3ccccc3c2CO)c1 | 12.4
15 | CC1CCC/C(=C\Nc2ccc(C(=O)O)c(O)c2)C1=O (stereo not shown) | 9.19
16 | CCCCOC(=O)CCc1nc2ccccc2[nH]1.Cl | 9.71
17 | CSCCC(N=C(NS(=O)(=O)c1ccccc1)c1ccccc1)C(=O)O (stereo not shown) | 8.5
18 | COCCCNc1cc(C)nc2ccccc12.Cl | -10.3
19 | Cc1cccc(NC(=O)CSc2ccc(-c3ccc4c(c3)OCO4)nn2)c1C | 4.13
20 | CCOC(=O)c1cnc(SCC(=O)NCc2cccs2)nc1N | 8.72
21 | Cc1ccc(Cn2cc(S(=O)(=O)c3ccc(C(C)C)cc3)c(=O)c3cc4c(cc32)OCO4)cc1 | 1.66
22 | CCCCOCCCNC1=NCCCCC1 | 5.99

Row | Compound | hERG current change (%, negative = inhibition) at 1uM [%]
23 | COCCCNC(=O)C(F)(F)C(F)(F)C(=O)NCCCOC | 4.13
24 | Cc1onc(-c2ccccc2Cl)c1C(=O)N1CCOC12CCCCC2 | 8.25
25 | CCOC(=O)/C=C1\NC(=O)C(C)S1 (stereo not shown) | 11.6
26 | CCCCCCS(=O)[C@H]1CS(=O)(=O)C[C@@H]1S(=O)CCCCCC (stereo partly shown) | -25.8
27 | CCC(=O)[C@@]1(C)[C@H](C)C[C@H]2[C@@H]3CCC4=CC(=O)C=C[C@]4(C)[C@H]3[C@@H](O)C[C@@]21C | 9.03
28 | CCOc1ccc(-c2c(C(=O)N/N=C/c3ccoc3)nnn2-c2nonc2N)cc1 | 13.6
29 | Cl.Clc1ccc(CN2C3=NCCN3c3ccccc32)cc1Cl | -72.3
30 | O=c1[nH]c(=S)n(C2CC2)c(O)c1/C=N/Nc1ccccc1 | 8.59
31 | COc1cc(/C=C2/SC(=S)N(Cc3ccccc3)C2=O)ccc1OCC(=O)O | 11.2
32 | CS(=O)(=O)Nc1ccc(C2=NN(C(=O)c3ccco3)C(c3ccccc3F)C2)cc1 (stereo not shown) | -19.6
33 | O=C(O)c1c(C(=O)O)c(-c2ccc(F)cc2)n2c1CCC2 | 8.62
34 | CCOC(=O)N1CCN(C(=O)c2cn(CC)c3cc(N4CCN(C)CC4)c(F)cc3c2=O)CC1.Cl | 9.26
35 | Nc1ccc(S(=O)(=O)NC2(C(F)(F)F)NC(=O)N(c3ccccc3Cl)C2=O)cc1 (stereo not shown) | 0.243
36 | O=S(=O)(c1cccc(S(=O)(=O)N2CCCC2)c1)N1CCCCC1 | 3.43
37 | O=S1(=O)CC2N=C(N(Cc3ccc(F)cc3Cl)c3ccccc3F)SC2C1 (stereo not shown) | 5.72
38 | O=C(CNCCc1ccc(F)cc1)Nc1cc(F)ccc1F.O=C(O)C(=O)O | 3.26
39 | Cc1ccc2c(c1)C(=NC1CCCCC1)c1cc3ccccc3nc1-2 | 12.1
40 | Cc1ccccc1C(=O)Nc1cccc(-c2ccc(N3CCOCC3)nn2)c1 | 6.31
41 | CN(C)CCNC(=O)Cn1ccc2cc(S(=O)(=O)N3CCCCC3)ccc21 | 26.4
42 | O=C1C(C=NCCCn2ccnc2)=C(O)c2ccccc21 | -1.07
43 | O=C(CCc1nnc(C2CCCCC2)o1)N1CCCCC1CCn1cccn1 (stereo not shown) | 3.26
44 | COc1ccc(S(=O)(=O)Nc2ccccc2OC)cc1C | 22

Row | Compound | hERG current change (%, negative = inhibition) at 1uM [%]
45 | CCN(CCS(=O)(=O)c1ccc(Cl)cc1)C(=O)Nc1ccccc1 | 11
46 | O=C(Nc1ccc(Cl)cc1)c1csc(-c2ccccc2)n1 | 7.08
47 | Cc1cc(NC(=O)CSCC(=O)N(c2cccc(Cl)c2)C(C(=O)NC2CCCCC2)c2ccc(O)c(O)c2)no1 (stereo not shown) | 10.7
48 | COc1cc2c(cc1OC)C(C(=O)Nc1ccccc1N1CCN(C)CC1)C1c3ccccc3CCN1C2=O (stereo not shown) | 4.41
49 | Cc1c(N(C(=O)CNC(=O)c2ccccc2)C2(C(=O)NC3CCCCC3)CCCCC2)c(=O)n(-c2ccccc2)n1C | 14.6
50 | COc1ccc(NC(=O)c2cc(S(=O)(=O)N3CCCCC3)c[nH]2)c(OC)c1 | 8.48
51 | COc1ccc(-n2c(N)c(C#N)c3ccc([N+](=O)[O-])cc3c2=O)cc1 | 5.85
52 | CCCc1c(C)c2ccccc2[nH]c1=O | 7.27
53 | CC(=O)/C=C(/C)NC(Cc1c[nH]c2ccccc12)C(=O)O (stereo not shown) [14727836] | 0.188
54 | NCCCC[C@H]1CNC(=O)C(=O)N1CCc1cc(C(F)(F)F)cc(C(F)(F)F)c1 | 11.4
55 | Cc1ccc(-c2nc(N)sc2CC(=O)OCC(=O)NCC2CCCO2)cc1 (stereo not shown) | 7.16
56 | N#C/C(=C\c1ccccc1Cl)C(=O)Nc1ccccn1 | 15
57 | CCN(CC(=O)Nc1c(F)cccc1F)C(=O)CCCOc1ccc(OC)cc1 | 1.6
58 | CCC(=O)Nc1nnc(-c2ccccn2)o1 | 0.0215
59 | CCN(CC)C(=S)SCC(=O)Nc1nc(-c2ccccc2)c(-c2ccccc2)o1 | 11
60 | C[C@]12CC[C@H]3[C@@H](CCC4=CC(=O)CC[C@@]43C)[C@@H]1CC[C@@H]2C(=O)CO | 6.52
61 | O=P(O)(CCCP(=O)(O)CCc1ccccc1)CCc1ccccc1 | 3.04
62 | CCC(C)NC(=O)Nc1ccc(Br)cc1Cl (stereo not shown) | 4.69
63 | C[C@@H](NC(=O)[C@@H]1Cc2ccccc2CN1)C(=O)Nc1ccc2c(c1)OCCO2 | 5.96
64 | Cc1ccc(-n2ncc3c(NCCCN4CCCC4=O)ncnc32)c(C)c1 | 11.7
65 | Nc1nc(OCC(F)(F)F)cc(Oc2ccccc2F)n1 | -3.6
66 | COc1cccc(-c2noc(CCC(=O)NC3CCCC3)n2)c1 | 9.98

Row | Compound | hERG current change (%, negative = inhibition) at 1uM [%]
67 | Cc1cc(C(=O)N/N=C/c2ccc(-c3ccc([N+](=O)[O-])cc3Cl)o2)n[nH]1 | 13.8
68 | CC1Cc2nc(SCC(=O)N3CCCc4ccccc43)n(C)c(=O)c2S1 (stereo not shown) | 1.64
69 | O=C1C=CC2C(c3ccc4c(c3)OCO4)CC1N2Cc1ccccc1 (stereo not shown) | 10.2
70 | Oc1ccc(C[C@@H]2CNCCN2CCc2cccc3ccccc23)cc1 | -31
71 | O=C(O)C1CCCCC1C(=O)NCCCCc1ccccc1 (stereo not shown) | -6.23
72 | Cc1ccc(CNC(=O)CSc2ncccn2)cc1 | 7.13
73 | O=C(NCCNCCO)C1(C(F)(F)F)C/C(=C\CCO)CCCO1 (stereo not shown) | 1.05
74 | CCOC(=O)C1=CCN(Cc2ccccc2)CC1.Cl | 14.6
75 | COc1ccc(NC(=O)C2CC2)cc1NS(=O)(=O)c1ccc(F)cc1 | 9.01
76 | CCC1=[N+](CC(=O)c2ccc(Br)cc2)CCn2c(C)ccc21.[Br-] | 2.38
77 | Cn1c(=O)c(C(=O)NCc2ccccc2Cl)c(O)c2ccccc21 | 15.1
78 | CCOc1ccc(NC(=O)CSc2nc(C)c3c(c2C#N)CCCC3)cc1 | -5.6
79 | O=C(O)C(Cc1ccccc1)N1C(=O)c2c(Cl)c(Cl)c(Cl)c(Cl)c2C1=O (stereo not shown) | 6.99
80 | Cc1ccccc1C(=O)N1CCN(S(=O)(=O)c2ccccc2)CC1 | 11.5
81 | CCCOc1ccc(CC(=O)NCc2ccco2)cc1OC | 12.1
82 | COc1ccc2nc(N3CCOCC3)cc(C)c2c1 | 12.9
83 | CC1=C(C(=O)OCC2CCCO2)C(c2ccccc2OC(C)C)C2=C(CC(c3ccco3)CC2=O)N1 (stereo not shown) | -5.16
84 | COc1cc(-n2c(=O)c3ccccc3n(Cc3cccnc3)c2=O)cc(OC)c1OC | 9.62
85 | COc1cccc(C(=O)NC2CC3CCCC(C2)N3CC(=O)Nc2ccccc2)c1.Cl (stereo not shown) | -9.02
86 | COc1ccc2[nH]c(=O)c(CN(Cc3cccs3)Cc3nnnn3C(C)(C)C)cc2c1 | -6.85
87 | COc1ccc(O)c(/C=N/NC(=O)CSc2nnc(C)n2-c2ccccc2)c1 | 11.2
88 | O=C(COc1ccccc1Cl)NNC(=O)C1CCCO1 (stereo not shown) | 3.63
